# Paper PMC5814325
# Chains of the proteins cited; added tags and fusions are not shown. Residues count along the entry.
# UniProt P52799, residues 28-333: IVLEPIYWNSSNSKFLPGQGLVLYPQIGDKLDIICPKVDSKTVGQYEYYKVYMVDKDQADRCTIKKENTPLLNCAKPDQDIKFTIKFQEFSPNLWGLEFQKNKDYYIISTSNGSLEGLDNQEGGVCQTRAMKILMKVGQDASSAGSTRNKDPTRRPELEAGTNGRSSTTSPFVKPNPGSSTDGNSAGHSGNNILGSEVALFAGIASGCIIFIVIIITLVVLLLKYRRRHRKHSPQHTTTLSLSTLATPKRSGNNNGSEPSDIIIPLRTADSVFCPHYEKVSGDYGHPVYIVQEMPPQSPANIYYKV
# Residue numbers refer to the chain shown, from its start. Names and notes keep the numbering of the source. These are yes or no findings as the source states them, for the method shown. Binding seen in cells or lysates may run through a third protein. Some binding calls cover weakened binding; strength is not graded here. Sequences can lack the tags named with a protein.
# T1: HA-tagged ephrinB1 (wild type) (UniProt P98172)
# T1 sequence: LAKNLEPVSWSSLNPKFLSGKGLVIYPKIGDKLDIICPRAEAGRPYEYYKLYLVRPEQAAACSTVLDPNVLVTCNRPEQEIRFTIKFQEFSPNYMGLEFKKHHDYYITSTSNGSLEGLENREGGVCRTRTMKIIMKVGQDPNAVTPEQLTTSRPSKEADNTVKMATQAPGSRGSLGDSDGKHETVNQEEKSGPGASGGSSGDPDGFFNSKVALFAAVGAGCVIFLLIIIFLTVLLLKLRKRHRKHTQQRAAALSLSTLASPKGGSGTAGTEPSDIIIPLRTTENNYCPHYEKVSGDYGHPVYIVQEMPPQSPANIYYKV
# T2: HA-tagged ephrinB1 Δ335–342 (UniProt P98172)
# T2 sequence: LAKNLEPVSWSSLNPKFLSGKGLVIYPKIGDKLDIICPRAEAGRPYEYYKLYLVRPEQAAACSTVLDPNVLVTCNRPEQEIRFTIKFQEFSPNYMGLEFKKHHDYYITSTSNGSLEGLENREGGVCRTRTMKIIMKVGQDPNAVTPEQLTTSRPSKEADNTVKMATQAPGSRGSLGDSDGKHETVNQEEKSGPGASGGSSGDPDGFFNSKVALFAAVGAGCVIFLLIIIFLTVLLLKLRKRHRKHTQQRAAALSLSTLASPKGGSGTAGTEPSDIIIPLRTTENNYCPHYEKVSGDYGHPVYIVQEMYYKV
# T3: HA-tagged ephrinB1 Δ287–326 (UniProt P98172)
# T3 sequence: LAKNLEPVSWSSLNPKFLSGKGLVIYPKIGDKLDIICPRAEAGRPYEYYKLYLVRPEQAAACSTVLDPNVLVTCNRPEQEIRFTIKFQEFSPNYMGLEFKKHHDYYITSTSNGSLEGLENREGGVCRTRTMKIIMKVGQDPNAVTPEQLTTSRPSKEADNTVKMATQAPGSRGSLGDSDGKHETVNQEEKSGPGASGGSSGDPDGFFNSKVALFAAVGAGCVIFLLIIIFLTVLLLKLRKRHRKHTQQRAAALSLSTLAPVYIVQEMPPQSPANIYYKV
# T4: HA-tagged ephrinB1 Δ327–334 (UniProt P98172)
# T4 sequence: T2 sequence with V301P, Y302Q, I303S, V304P, Q305A, E306N, M307I
# T5: HA-tagged Δ4-ephrinB1 (lacking the C-terminal four amino acids, the PDZ-binding motif) (UniProt P98172)
# T5 sequence: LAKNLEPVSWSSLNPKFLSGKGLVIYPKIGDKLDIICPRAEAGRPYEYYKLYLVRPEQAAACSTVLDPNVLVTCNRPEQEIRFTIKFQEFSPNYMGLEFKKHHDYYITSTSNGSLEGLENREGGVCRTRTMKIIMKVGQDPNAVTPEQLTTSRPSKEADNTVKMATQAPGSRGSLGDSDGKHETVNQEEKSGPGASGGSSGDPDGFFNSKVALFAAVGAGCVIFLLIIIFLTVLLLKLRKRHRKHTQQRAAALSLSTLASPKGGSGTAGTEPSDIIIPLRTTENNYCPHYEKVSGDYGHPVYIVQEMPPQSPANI
# T6: HA-tagged ephrinB3 (UniProt Q15768)
# T6 sequence: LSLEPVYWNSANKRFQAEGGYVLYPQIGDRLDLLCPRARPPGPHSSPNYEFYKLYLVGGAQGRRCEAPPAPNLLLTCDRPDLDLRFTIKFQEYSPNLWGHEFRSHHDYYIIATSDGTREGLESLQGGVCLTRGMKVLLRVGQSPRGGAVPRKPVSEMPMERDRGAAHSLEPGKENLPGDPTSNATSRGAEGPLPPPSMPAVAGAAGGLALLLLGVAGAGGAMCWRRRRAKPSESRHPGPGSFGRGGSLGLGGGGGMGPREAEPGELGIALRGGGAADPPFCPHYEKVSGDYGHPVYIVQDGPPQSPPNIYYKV
# T7: Flag-tagged RhoGDI1 (wild type) (human) (UniProt P52565)
# T7 sequence: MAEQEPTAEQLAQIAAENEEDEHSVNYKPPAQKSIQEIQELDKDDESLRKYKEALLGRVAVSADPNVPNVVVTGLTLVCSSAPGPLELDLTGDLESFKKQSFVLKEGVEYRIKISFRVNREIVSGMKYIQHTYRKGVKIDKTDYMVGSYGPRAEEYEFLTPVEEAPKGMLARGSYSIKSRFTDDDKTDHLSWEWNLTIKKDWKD
# T8: Flag-tagged RhoGDI1 G173V (human) (UniProt P52565)
# T8 sequence: T7 sequence with G173V
# T9: Flag-tagged RhoGDI2 (human) (UniProt P52566)
# T9 sequence: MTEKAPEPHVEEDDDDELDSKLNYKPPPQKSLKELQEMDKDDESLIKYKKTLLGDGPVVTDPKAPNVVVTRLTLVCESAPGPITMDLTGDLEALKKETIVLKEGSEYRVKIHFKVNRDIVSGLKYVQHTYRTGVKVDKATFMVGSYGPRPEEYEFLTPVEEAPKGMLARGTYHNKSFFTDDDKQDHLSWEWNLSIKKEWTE
# T10: HA-tagged ephrinB1 (wild type) in HeLa cells (UniProt P98172)
# T10 sequence: T1 sequence
# T11: HA-tagged ephrinB1 Δ327–334 in HeLa cells (UniProt P98172)
# T11 sequence: T2 sequence with V301P, Y302Q, I303S, V304P, Q305A, E306N, M307I
# B1: Flag-tagged RhoGDI1 (wild type) (protein, UniProt P52565-1 1-204)
# chain: T7 sequence
# B2: HA-tagged ephrinB1 (wild type) (protein, UniProt P98172 28-346)
# chain: T1 sequence
# B3: V5-tagged RhoGDI1 G173V (protein, UniProt P52565-1 1-204)
# chain: T7 sequence with G173V
# B4: Flag-tagged RhoGDI1 (wild type) in HeLa cells (protein, UniProt P52565-1 1-204)
# chain: T7 sequence
# B5: endogenous RhoGDI1 (HeLa) (protein, UniProt P52565 1-204)
# chain: T7 sequence
# B6: V5-tagged RhoGDI1 G173V in HeLa cells (protein, UniProt P52565-1 1-204)
# chain: T7 sequence with G173V
# B7: Flag-tagged RhoGDI2 (protein, UniProt P52566 1-201)
# chain: T9 sequence
# Legend:
# [1] = molecular target: T1, HA-tagged ephrinB1 (wild type); test: co-IP; HEK293T cells co-transfected with increasing amounts of V5-RhoGDI1 G173V and constant HA-ephrinB1 and wt Flag-RhoGDI1; HA IP; competition
# [2] = molecular target: T2, HA-tagged ephrinB1 Δ335–342; test: co-IP; HEK293T cells co-transfected; lysis buffer 20 mM Tris-HCl pH 8, 137 mM NaCl, 2 mM EDTA, 1% NP-40; IP with HA or Flag antibodies at 4 °C overnight, protein A/G-agarose; immunoblot
# [3] = molecular target: T3, HA-tagged ephrinB1 Δ287–326; test: as above
# [4] = molecular target: HA-tagged ephrinB2 (UniProt P52799); test: as above
# [5] = molecular target: T4, HA-tagged ephrinB1 Δ327–334; test: as above
# [6] = molecular target: T5, HA-tagged Δ4-ephrinB1 (lacking the C-terminal four amino acids, the PDZ-binding motif); test: as above
# [7] = molecular target: T1, HA-tagged ephrinB1 (wild type); test: as above
# [8] = molecular target: T6, HA-tagged ephrinB3; test: as above
# [9] = molecular target: T7, Flag-tagged RhoGDI1 (wild type) (human); test: as above
# [10] = molecular target: T8, Flag-tagged RhoGDI1 G173V (human); test: as above
# [11] = molecular target: T9, Flag-tagged RhoGDI2 (human); test: as above
# [12] = molecular target: T10, HA-tagged ephrinB1 (wild type) in HeLa cells; test: co-IP; HeLa cells expressing ephrinB1 constructs (with Flag-RhoGDI1 or with endogenous RhoGDI1), serum-starved, treated with 2.5 μg/ml control Fc or EphB2-Fc for 30 min; IP of ephrinB1 (HA antibody) and immunoblot
# [13] = molecular target: T11, HA-tagged ephrinB1 Δ327–334 in HeLa cells; test: as above
# [14] = molecular target: T10, HA-tagged ephrinB1 (wild type) in HeLa cells; test: co-IP; HeLa cells co-transfected with HA-ephrinB1 and/or V5-RhoGDI1 G173V, treated with 2.5 μg/ml control Fc or EphB2-Fc for 15 min; IP and immunoblot; competition with endogenous RhoGDI1
binder,measurement,setting,value
B1,binding,[1],binds
same,binding,[2],binds
same,binding,[3],binds
same,binding,[4],binds
same,binding,[5],no binding
same,binding,[6],binds
same,binding,[7],binds
same,binding,[8],no binding
B2,binding,[9],binds
same,binding,[10],binds
same,binding,[11],no binding
B3,binding,[1],binds
B4,binding,[12],binds
B5,binding,[12],binds
same,binding,[13],no binding
same,binding,[14],binds
B6,binding,[14],binds
B7,binding,[7],no binding
